Measurements from article PMC3065485.
These are yes or no findings as the source states them, for the method shown. Binding seen in cells or lysates may run through a third protein. Some entries that bind do so weakly or less than the wild type. For part of these data: Sequences can lack the tags named with a protein.

The chains behind the UniProt entries cited, without tags or fusion partners.
UniProt P25655: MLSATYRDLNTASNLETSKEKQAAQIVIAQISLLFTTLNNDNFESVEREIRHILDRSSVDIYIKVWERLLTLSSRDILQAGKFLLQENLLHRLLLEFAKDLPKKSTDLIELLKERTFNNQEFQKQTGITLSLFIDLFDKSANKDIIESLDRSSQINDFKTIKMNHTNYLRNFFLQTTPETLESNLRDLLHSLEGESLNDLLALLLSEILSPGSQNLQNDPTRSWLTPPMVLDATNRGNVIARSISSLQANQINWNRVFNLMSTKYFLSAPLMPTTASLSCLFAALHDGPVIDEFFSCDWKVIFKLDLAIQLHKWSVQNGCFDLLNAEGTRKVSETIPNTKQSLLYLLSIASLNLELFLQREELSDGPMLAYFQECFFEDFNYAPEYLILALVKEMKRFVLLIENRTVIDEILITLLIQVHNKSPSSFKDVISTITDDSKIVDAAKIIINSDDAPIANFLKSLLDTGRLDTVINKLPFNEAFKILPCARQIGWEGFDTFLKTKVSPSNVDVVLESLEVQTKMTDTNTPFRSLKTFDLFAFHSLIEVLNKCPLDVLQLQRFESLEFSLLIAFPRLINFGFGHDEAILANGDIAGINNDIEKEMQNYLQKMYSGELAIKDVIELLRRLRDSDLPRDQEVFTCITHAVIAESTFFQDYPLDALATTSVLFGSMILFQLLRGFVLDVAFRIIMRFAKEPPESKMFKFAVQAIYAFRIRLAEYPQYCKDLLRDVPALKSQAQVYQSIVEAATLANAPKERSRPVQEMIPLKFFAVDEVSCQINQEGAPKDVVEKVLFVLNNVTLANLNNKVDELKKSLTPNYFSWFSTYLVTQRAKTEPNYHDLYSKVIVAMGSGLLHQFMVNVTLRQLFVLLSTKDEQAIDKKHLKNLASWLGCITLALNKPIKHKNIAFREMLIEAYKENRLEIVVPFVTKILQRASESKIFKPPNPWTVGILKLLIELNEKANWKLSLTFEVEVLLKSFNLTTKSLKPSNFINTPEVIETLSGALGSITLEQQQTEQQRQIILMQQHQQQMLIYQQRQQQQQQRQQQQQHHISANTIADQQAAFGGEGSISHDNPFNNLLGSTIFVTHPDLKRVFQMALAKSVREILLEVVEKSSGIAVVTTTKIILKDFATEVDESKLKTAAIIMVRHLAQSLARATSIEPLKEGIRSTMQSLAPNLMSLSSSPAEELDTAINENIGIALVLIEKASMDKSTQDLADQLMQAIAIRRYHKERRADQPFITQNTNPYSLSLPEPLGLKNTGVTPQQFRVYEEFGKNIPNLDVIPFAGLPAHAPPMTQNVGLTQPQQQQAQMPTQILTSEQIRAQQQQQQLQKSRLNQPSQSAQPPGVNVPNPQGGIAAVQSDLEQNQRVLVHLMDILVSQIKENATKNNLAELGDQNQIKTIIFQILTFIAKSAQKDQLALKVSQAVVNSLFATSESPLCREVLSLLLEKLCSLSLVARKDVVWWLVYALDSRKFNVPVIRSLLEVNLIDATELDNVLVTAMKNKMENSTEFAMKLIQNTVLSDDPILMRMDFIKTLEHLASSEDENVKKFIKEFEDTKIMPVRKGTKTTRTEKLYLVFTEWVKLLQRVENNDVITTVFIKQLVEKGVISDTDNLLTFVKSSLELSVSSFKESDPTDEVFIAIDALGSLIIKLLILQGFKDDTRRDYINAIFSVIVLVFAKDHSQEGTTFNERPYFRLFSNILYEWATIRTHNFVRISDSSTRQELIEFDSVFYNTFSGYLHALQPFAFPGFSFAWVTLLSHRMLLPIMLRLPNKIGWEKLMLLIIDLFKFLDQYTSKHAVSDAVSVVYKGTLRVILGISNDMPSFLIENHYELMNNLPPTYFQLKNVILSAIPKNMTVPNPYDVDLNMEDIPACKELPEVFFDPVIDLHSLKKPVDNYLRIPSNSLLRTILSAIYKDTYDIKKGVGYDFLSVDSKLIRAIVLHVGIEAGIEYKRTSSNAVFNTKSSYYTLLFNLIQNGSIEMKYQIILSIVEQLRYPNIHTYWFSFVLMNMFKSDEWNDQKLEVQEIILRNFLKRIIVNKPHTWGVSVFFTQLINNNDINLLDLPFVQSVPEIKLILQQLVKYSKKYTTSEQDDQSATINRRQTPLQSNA
UniProt Q02455: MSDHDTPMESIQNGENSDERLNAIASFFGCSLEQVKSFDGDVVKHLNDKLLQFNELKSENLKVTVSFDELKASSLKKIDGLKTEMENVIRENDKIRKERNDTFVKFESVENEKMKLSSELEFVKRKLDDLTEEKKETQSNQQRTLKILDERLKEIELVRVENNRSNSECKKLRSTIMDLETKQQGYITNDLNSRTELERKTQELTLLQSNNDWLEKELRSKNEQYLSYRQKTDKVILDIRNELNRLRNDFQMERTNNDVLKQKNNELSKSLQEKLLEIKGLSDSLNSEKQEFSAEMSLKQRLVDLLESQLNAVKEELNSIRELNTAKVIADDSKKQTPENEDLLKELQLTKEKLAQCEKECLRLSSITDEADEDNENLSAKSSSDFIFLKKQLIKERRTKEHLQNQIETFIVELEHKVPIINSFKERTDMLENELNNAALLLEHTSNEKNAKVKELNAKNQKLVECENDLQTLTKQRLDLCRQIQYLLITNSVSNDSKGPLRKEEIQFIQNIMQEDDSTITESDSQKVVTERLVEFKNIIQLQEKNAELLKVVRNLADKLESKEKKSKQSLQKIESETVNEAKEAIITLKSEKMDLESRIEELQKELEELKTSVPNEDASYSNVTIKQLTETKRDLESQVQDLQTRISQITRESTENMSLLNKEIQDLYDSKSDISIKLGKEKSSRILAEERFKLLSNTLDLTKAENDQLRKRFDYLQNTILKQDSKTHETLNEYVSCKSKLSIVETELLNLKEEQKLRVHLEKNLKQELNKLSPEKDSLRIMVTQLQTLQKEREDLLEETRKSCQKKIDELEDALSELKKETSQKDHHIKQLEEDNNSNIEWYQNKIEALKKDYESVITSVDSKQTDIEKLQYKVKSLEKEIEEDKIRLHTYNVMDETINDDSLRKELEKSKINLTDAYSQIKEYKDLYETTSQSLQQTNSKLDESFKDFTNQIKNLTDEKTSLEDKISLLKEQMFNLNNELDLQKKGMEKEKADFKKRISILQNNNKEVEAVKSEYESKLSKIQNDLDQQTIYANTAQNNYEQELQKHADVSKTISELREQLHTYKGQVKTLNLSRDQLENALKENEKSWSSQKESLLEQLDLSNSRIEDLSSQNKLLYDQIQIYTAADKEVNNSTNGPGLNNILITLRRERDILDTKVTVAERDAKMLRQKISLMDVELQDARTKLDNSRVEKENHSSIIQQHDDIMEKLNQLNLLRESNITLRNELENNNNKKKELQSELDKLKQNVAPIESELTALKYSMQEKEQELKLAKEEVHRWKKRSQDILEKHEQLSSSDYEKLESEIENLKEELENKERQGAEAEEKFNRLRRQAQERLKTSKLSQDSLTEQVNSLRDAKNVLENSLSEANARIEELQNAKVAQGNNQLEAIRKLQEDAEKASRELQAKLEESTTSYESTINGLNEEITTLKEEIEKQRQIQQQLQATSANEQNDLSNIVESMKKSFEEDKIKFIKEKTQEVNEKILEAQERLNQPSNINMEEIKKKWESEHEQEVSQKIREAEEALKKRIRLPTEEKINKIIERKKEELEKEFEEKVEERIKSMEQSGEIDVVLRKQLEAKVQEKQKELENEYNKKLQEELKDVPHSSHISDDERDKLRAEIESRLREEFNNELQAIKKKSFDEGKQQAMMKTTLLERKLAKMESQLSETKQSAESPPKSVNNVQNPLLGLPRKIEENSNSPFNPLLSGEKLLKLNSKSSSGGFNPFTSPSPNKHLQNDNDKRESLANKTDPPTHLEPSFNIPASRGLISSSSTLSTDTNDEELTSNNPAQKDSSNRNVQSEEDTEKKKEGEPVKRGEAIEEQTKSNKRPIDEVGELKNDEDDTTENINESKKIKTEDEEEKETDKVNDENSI

T1: Caf1-Myc (S. cerevisiae) (UniProt P39008)
T1 sequence: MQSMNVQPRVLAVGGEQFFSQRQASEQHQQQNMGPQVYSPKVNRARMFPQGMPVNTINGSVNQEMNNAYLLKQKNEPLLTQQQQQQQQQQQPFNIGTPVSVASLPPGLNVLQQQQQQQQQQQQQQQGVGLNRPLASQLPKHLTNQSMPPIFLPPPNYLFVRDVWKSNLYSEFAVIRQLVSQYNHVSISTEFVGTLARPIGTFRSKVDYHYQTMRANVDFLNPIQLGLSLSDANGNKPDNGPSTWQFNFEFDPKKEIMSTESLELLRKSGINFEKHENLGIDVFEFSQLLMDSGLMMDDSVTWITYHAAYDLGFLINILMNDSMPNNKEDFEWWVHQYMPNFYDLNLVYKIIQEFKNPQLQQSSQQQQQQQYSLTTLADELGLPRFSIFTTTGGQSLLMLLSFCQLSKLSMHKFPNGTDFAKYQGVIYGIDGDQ

T2: Ccr4-Myc (S. cerevisiae) (UniProt P31384)
T2 sequence: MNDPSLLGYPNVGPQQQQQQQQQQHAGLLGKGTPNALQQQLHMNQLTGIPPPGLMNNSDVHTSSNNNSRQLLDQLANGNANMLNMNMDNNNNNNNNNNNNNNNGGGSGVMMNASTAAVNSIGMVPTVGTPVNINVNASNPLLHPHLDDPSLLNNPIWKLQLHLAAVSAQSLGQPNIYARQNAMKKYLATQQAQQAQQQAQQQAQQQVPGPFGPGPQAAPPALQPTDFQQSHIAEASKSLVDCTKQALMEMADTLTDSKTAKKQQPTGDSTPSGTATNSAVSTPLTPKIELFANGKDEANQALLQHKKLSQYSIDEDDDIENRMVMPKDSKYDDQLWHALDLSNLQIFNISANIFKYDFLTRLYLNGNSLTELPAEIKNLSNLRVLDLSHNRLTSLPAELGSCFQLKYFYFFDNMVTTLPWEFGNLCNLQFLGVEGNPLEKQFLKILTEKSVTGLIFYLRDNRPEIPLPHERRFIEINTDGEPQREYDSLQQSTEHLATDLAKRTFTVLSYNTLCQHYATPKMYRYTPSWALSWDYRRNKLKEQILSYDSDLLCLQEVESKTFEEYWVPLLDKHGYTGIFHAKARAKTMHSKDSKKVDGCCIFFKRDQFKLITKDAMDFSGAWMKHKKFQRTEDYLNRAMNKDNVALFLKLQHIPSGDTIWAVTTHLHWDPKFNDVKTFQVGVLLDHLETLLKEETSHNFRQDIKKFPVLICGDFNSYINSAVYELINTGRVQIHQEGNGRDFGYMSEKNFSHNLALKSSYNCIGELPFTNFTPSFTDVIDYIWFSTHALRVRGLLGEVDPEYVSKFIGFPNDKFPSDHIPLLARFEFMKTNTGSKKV

T3: Not2-Myc (S. cerevisiae) (UniProt P06100)
T3 sequence: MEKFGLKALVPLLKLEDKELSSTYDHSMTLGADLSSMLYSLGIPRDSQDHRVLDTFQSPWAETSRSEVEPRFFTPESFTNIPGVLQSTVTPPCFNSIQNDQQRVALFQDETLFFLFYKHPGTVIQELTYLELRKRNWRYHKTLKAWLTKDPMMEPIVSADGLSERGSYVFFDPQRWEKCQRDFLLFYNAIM

T4: Not4 (Myc-tagged) (S. cerevisiae) (UniProt P34909)
T4 sequence: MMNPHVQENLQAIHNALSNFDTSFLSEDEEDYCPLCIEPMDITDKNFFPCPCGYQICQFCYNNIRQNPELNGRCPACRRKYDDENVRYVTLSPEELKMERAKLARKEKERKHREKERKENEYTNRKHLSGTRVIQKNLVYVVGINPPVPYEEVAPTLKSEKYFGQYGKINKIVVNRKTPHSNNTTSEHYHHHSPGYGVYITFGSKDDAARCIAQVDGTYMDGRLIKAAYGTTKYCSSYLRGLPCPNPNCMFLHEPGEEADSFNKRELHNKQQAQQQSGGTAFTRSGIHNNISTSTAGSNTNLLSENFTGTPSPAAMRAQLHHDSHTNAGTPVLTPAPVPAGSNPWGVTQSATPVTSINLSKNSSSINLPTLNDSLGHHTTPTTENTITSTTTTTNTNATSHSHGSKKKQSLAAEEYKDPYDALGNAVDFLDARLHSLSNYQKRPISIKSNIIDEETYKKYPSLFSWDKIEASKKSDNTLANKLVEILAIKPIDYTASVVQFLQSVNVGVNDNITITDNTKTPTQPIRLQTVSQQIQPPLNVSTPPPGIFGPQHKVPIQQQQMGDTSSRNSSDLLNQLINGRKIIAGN

T5: Not5-Myc (S. cerevisiae) (UniProt Q12514)
T5 sequence: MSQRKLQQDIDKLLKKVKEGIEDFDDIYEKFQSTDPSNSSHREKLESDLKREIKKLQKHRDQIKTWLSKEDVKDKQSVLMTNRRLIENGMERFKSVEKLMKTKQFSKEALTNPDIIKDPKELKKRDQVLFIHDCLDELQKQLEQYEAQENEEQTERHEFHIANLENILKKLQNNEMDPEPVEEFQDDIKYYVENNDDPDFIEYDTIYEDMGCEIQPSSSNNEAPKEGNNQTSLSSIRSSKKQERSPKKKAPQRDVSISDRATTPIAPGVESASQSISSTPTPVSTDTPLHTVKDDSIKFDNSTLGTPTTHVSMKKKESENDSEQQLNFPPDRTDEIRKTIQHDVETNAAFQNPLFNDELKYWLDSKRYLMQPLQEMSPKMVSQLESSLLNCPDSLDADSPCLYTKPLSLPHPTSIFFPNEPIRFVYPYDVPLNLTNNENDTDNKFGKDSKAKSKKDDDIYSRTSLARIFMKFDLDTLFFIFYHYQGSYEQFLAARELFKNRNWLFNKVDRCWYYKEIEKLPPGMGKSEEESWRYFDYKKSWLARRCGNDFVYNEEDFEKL

B1: Hrp1 (protein, UniProt Q99383 1-534)
chain: MSSDEEDFNDIYGDDKPTTTEEVKKEEEQNKAGSGTSQLDQLAALQALSSSLNKLNNPNSNNSSSNNSNQDTSSSKQDGTANDKEGSNEDTKNEKKQESATSANANANASSAGPSGLPWEQLQQTMSQFQQPSSQSPPQQQVTQTKEERSKADLSKESCKMFIGGLNWDTTEDNLREYFGKYGTVTDLKIMKDPATGRSRGFGFLSFEKPSSVDEVVKTQHILDGKVIDPKRAIPRDEQDKTGKIFVGGIGPDVRPKEFEEFFSQWGTIIDAQLMLDKDTGQSRGFGFVTYDSADAVDRVCQNKFIDFKDRKIEIKRAEPRHMQQKSSNNGGNNGGNNMNRRGGNFGNQGDFNQMYQNPMMGGYNPMMNPQAMTDYYQKMQEYYQQMQKQTGMDYTQMYQQQMQQMAMMMPGFAMPPNAMTLNQPQQDSNATQGSPAPSDSDNNKSNDVQTIGNTSNTDSGSPPLNLPNGPKGPSQYNDDHNSGYGYNRDRGDRDRNDRDRDYNHRSGGNHRRNGRGGRGGYNRRNNGYHPYNR
modifications: arginine methylation by Hmt1 (sites not given)
B2: Nab2 (protein, UniProt P32505 1-525)
chain: MSQEQYTENLKVIVAEKLAGIPNFNEDIKYVAEYIVLLIVNGGTVESVVDELASLFDSVSRDTLANVVQTAFFALEALQQGESAENIVSKIRMMNAQSLGQSDIAQQQQQQQQQQQPDIAQQQPQQQPQQQPQQQPQQQPQQQPQQQPQQQPQQQPQLQPLQPQLGTQNAMQTDAPATPSPISAFSGVVNAAAPPQFAPVDNSQRFTQRGGGAVGKNRRGGRGGNRGGRNNNSTRFNPLAKALGMAGESNMNFTPTKKEGRCRLFPHCPLGRSCPHAHPTKVCNEYPNCPKPPGTCEFLHPNEDEELMKEMERTREEFQKRKADLLAAKRKPVQTGIVLCKFGALCSNPSCPFGHPTPANEDAKVIDLMWCDKNLTCDNPECRKAHSSLSKIKEVKPISQKKAAPPPVEKSLEQCKFGTHCTNKRCKYRHARSHIMCREGANCTRIDCLFGHPINEDCRFGVNCKNIYCLFRHPPGRVLPEKKGAAPNSNVPTNERPFALPENAIIENAPPQTSFTHQEQDTEMN
modifications: arginine methylation by Hmt1 (sites not given)

Columns and labels:
Caf1-Myc (S. cerevisiae) [1] = target: T1, Caf1-Myc (S. cerevisiae); test: co-IP; data not shown: interaction of Mlp1 and Caf1 after RNase treatment; RNase experiments used extracts of cells expressing Caf1-Myc
Ccr4-Myc (S. cerevisiae) = target: T2, Ccr4-Myc (S. cerevisiae); test: co-IP; α-Myc immunoprecipitation of the Myc-tagged Ccr4-Not subunit from 500 µg yeast whole-cell extract (10 mM Tris pH 8.0, 150 mM NaCl, 0.1% Nonidet P-40, 10% glycerol, 1 mM DTT), 4°C; immunoblot with α-Nab2 or α-Hrp1; Caf1-Hrp1 also after RNase A (0.105 U/µL, 10 min at 37°C) and in hmt1Δ cells carrying the HMT1 plasmid
[2] = target: Not1-Myc (NOT1-MYC13) (S. cerevisiae) (UniProt P25655); test: as above
Not2-Myc (S. cerevisiae) = target: T3, Not2-Myc (S. cerevisiae); test: as above
[3] = target: T4, Not4 (Myc-tagged) (S. cerevisiae); test: as above
Not5-Myc (S. cerevisiae) = target: T5, Not5-Myc (S. cerevisiae); test: as above
Caf1-Myc (S. cerevisiae) [4] = target: T1, Caf1-Myc (S. cerevisiae); test: co-IP; data not shown: α-Myc immunoprecipitation of Caf1-Myc after treating the lysate with RNase A; Nab2 detected
Caf1-Myc (S. cerevisiae) [5] = target: T1, Caf1-Myc (S. cerevisiae); test: co-IP; α-Myc immunoprecipitation of the Myc-tagged Ccr4-Not subunit from 500 µg yeast whole-cell extract (10 mM Tris pH 8.0, 150 mM NaCl, 0.1% Nonidet P-40, 10% glycerol, 1 mM DTT), 4°C; immunoblot with α-Nab2 or α-Hrp1; Caf1-Hrp1 also after RNase A (0.105 U/µL, 10 min at 37°C) and in hmt1Δ cells carrying the HMT1 plasmid

Row | Molecule | binding (Caf1-Myc (S. cerevisiae) [1]) | binding (Ccr4-Myc (S. cerevisiae)) | binding [2] | binding (Not2-Myc (S. cerevisiae)) | binding [3] | binding (Not5-Myc (S. cerevisiae)) | binding (Caf1-Myc (S. cerevisiae) [4]) | binding (Caf1-Myc (S. cerevisiae) [5])
1 | Mlp1 (from UniProt Q02455 1-1875) | binds |  |  |  |  |  |  | 
2 | B1 |  | binds | binds | binds | binds | binds |  | 
3 | B2 |  | binds | no binding | no binding |  | binds | binds | binds
